In PMC4729902:
These are yes or no findings as the source states them, for the method shown. Binding seen in cells or lysates may run through a third protein. Some binding calls cover weakened binding; strength is not graded here. Sequences can lack the tags named with a protein.

Key:
Experiment in all cases: co-IP; HEK-293 cells overexpressing FLAG-tagged MEIOC or deletion mutants, pre-treated 2 h with 10 μM MG-132; IP with anti-FLAG M2 magnetic beads, western blot with anti-FLAG and anti-YTHDC2
[1] = molecular target: T1, FLAG-tagged MEIOC deletion mutant ΔN1 [Glu2-Pro366] (mouse) (UniProt A2AG06)
T1 sequence: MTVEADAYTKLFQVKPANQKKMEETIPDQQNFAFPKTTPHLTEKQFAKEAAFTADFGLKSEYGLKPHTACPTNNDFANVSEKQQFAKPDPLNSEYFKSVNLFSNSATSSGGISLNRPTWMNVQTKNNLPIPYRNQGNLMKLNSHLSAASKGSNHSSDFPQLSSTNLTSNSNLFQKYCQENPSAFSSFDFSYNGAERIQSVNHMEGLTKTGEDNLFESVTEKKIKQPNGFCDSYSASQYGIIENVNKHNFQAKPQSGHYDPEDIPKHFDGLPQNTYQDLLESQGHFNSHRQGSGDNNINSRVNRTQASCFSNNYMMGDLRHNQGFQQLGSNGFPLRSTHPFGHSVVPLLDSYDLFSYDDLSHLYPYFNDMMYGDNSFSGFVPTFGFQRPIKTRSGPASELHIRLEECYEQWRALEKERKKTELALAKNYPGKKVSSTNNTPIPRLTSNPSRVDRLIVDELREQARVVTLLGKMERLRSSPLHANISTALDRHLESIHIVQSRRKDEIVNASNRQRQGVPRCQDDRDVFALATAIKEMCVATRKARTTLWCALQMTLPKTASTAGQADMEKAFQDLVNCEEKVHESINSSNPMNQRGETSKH

[2] = molecular target: T2, FLAG-tagged MEIOC deletion mutant ΔH2 [Ile806-Ser842] (mouse) (UniProt A2AG06)
T2 sequence: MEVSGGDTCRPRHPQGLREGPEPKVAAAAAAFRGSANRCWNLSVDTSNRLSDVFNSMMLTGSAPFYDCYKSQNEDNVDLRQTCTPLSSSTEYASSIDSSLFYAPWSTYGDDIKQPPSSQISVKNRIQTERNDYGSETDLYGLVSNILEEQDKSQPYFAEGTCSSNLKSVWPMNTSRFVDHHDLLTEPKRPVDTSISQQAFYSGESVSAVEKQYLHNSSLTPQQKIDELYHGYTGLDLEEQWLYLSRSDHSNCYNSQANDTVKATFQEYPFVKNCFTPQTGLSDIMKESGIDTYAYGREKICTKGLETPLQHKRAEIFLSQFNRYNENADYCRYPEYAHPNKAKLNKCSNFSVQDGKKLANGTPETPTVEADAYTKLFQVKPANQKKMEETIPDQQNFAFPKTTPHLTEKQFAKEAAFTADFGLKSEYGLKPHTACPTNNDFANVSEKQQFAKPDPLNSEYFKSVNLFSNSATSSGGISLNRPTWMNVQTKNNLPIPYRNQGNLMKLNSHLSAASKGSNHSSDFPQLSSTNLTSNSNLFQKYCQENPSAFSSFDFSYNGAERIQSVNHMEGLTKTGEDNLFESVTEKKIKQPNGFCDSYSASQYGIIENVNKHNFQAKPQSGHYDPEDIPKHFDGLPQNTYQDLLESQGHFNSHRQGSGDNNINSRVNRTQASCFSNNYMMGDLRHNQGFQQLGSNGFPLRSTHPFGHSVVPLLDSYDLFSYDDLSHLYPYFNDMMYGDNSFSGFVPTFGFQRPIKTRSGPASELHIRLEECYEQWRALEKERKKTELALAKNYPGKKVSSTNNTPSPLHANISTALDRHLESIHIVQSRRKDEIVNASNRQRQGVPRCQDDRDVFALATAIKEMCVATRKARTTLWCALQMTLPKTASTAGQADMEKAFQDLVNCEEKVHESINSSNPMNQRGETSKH

[3] = molecular target: T3, FLAG-tagged MEIOC deletion mutant ΔN2 [Pro23-Ser715] (mouse) (UniProt A2AG06)
T3 sequence: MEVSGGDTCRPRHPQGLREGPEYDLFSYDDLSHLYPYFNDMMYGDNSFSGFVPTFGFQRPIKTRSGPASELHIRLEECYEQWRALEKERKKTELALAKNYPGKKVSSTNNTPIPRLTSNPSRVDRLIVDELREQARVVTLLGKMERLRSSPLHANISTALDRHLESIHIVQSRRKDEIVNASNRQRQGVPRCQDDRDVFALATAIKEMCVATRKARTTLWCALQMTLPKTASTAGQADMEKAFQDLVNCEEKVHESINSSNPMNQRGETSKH

binding [1]: binds
binding [2]: no binding
binding [3]: binds
B1: YTHDC2, in HEK-293 cells (protein, UniProt Q9H6S0 1-1430)
chain: MSRPSSVSPRQPAPGGGGGGGPSPCGPGGGGRAKGLKDIRIDEEVKIAVNIALERFRYGDQREMEFPSSLTSTERAFIHRLSQSLGLVSKSKGKGANRYLTVKKKDGSETAHAMMTCNLTHNTKHAVRSLIQRFPVTNKERTELLPKTERGNVFAVEAENREMSKTSGRLNNGIPQIPVKRGESEFDSFRQSLPVFEKQEEIVKIIKENKVVLIVGETGSGKTTQIPQFLLDDCFKNGIPCRIFCTQPRRLAAIAVAERVAAERRERIGQTIGYQIRLESRVSPKTLLTFCTNGVLLRTLMAGDSTLSTVTHVIVDEVHERDRFSDFLLTKLRDLLQKHPTLKLILSSAALDVNLFIRYFGSCPVIYIQGRPFEVKEMFLEDILRTTGYTNKEMLKYKKEKQQEEKQQTTLTEWYSAQENSFKPESQRQRTVLNVTDEYDLLDDGGDAVFSQLTEKDVNCLEPWLIKEMDACLSDIWLHKDIDAFAQVFHLILTENVSVDYRHSETSATALMVAAGRGFASQVEQLISMGANVHSKASNGWMALDWAKHFGQTEIVDLLESYSATLEFGNLDESSLVQTNGSDLSAEDRELLKAYHHSFDDEKVDLDLIMHLLYNICHSCDAGAVLIFLPGYDEIVGLRDRILFDDKRFADSTHRYQVFMLHSNMQTSDQKKVLKNPPAGVRKIILSTNIAETSITVNDVVFVIDSGKVKEKSFDALNFVTMLKMVWISKASAIQRKGRAGRCRPGICFRLFSRLRFQNMLEFQTPELLRMPLQELCLHTKLLAPVNCPIADFLMKAPEPPPALIVRNAVQMLKTIDAMDTWEDLTELGYHLADLPVEPHLGKMVLCAVVLKCLDPILTIACTLAYRDPFVLPTQASQKRAAMLCRKRFTAGAFSDHMALLRAFQAWQKARSDGWERAFCEKNFLSQATMEIIIGMRTQLLGQLRASGFVRARGGGDIRDVNTNSENWAVVKAALVAGMYPNLVHVDRENLVLTGPKEKKVRFHPASVLSQPQYKKIPPANGQAAAIKALPTDWLIYDEMTRAHRIANIRCCSAVTPVTILVFCGPARLASNALQEPSSFRVDGIPNDSSDSEMEDKTTANLAALKLDEWLHFTLEPEAASLLLQLRQKWHSLFLRRMRAPSKPWSQVDEATIRAIIAVLSTEEQSAGLQQPSGIGQRPRPMSSEELPLASSWRSNNSRKSSADTEFSDECTTAERVLMKSPSPALHPPQKYKDRGILHPKRGTEDRSDQSSLKSTDSSSYPSPCASPSPPSSGKGSKSPSPRPNMPVRYFIMKSSNLRNLEISQQKGIWSTTPSNERKLNRAFWESSIVYLVFSVQGSGHFQGFSRMSSEIGREKSQDWGSAGLGGVFKVEWIRKESLPFQFAHHLLNPWNDNKKVQISRDGQELEPLVGEQLLQLWERLPLGEKNTTD
